From the CheMixHub viscosity set
Where “and” joins values, the source holds several entries; their conditions need not be identical. Equal values may be shown once. ± gives the uncertainty stated by the source. This continues a long series; more values of the same kind are listed elsewhere.

Test: xn = mol fraction of the nth substance listed

OCC(O)CO + O
Conditions | viscosity
298.15 K, 101 kPa, x1 = 0.8114 | 408.3 ± 20 mPa·s
298.15 K, 101 kPa, x1 = 0.8274 | 441.8 ± 22 mPa·s
298.15 K, 101 kPa, x1 = 0.8428 | 474.8 ± 25 mPa·s
298.15 K, 101 kPa, x1 = 0.859 | 512.3 ± 27 mPa·s
298.15 K, 101 kPa, x1 = 0.8905 | 539.1 ± 190 mPa·s
298.15 K, 101 kPa, x1 = 0.9082 | 636.8 ± 37 mPa·s
298.15 K, 101 kPa, x1 = 0.9434 | 747.4 ± 46 mPa·s
298.15 K, 101 kPa, x1 = 0.96 | 757.4 ± 270 mPa·s
298.15 K, 101 kPa, x2 = 0.0171 | 884 ± 58 mPa·s
300.65 K, 101 kPa, x1 = 0.1967 | 6.203 ± 0.066 mPa·s
300.65 K, 101 kPa, x1 = 0.2067 | 6.776 ± 0.072 mPa·s
300.65 K, 101 kPa, x1 = 0.2178 | 7.43 ± 0.079 mPa·s
300.65 K, 101 kPa, x1 = 0.225 | 7.918 ± 0.085 mPa·s
300.65 K, 101 kPa, x1 = 0.2378 | 8.792 ± 0.095 mPa·s
300.65 K, 101 kPa, x1 = 0.2459 | 9.438 ± 0.1 mPa·s
300.65 K, 101 kPa, x1 = 0.2622 | 10.79 ± 0.12 mPa·s
303.15 K, 101 kPa, x1 = 0.021 | 1.03 ± 0.02 mPa·s
303.15 K, 101 kPa, x1 = 0.047 | 1.35 ± 0.03 mPa·s
303.15 K, 101 kPa, x1 = 0.077 | 1.87 ± 0.04 mPa·s
303.15 K, 101 kPa, x1 = 0.1005 | 2.231 ± 0.67 mPa·s
303.15 K, 101 kPa, x1 = 0.12 | 2.72 ± 0.06 mPa·s
303.15 K, 101 kPa, x1 = 0.16 | 4.21 ± 0.09 mPa·s
303.15 K, 101 kPa, x1 = 0.2026 | 5.528 ± 1.7 mPa·s
303.15 K, 101 kPa, x1 = 0.23 | 7.19 ± 0.15 mPa·s
303.15 K, 101 kPa, x1 = 0.27 | 9.85 ± 0.21 mPa·s
303.15 K, 101 kPa, x1 = 0.28 | 11.3 ± 0.2 mPa·s
303.15 K, 101 kPa, x1 = 0.281 | 7.803 ± 2.3 mPa·s
303.15 K, 101 kPa, x1 = 0.3085 | 9.698 ± 2.9 mPa·s
303.15 K, 101 kPa, x1 = 0.31 | 14.1 ± 0.3 mPa·s
303.15 K, 101 kPa, x1 = 0.37 | 21.2 ± 0.5 mPa·s
303.15 K, 101 kPa, x1 = 0.399 | 19.28 ± 5.8 mPa·s
303.15 K, 101 kPa, x1 = 0.44 | 33.9 ± 0.7 mPa·s
303.15 K, 101 kPa, x1 = 0.5002 | 48.48 ± 15 mPa·s
303.15 K, 101 kPa, x1 = 0.53 | 58 ± 1.2 mPa·s
303.15 K, 101 kPa, x1 = 0.6006 | 89.61 ± 27 mPa·s
303.15 K, 101 kPa, x1 = 0.64 | 109 ± 3 mPa·s
303.15 K, 101 kPa, x1 = 0.6493 | 119.1 ± 37 mPa·s
303.15 K, 101 kPa, x1 = 0.66 | 126 ± 3 mPa·s
303.15 K, 101 kPa, x1 = 0.69 | 147 ± 4 mPa·s
303.15 K, 101 kPa, x1 = 0.6917 | 145 ± 45 mPa·s
303.15 K, 101 kPa, x1 = 0.72 | 172 ± 5 mPa·s
303.15 K, 101 kPa, x1 = 0.7442 | 205.9 ± 7.2 mPa·s
303.15 K, 101 kPa, x1 = 0.75 | 202 ± 6 mPa·s
303.15 K, 101 kPa, x1 = 0.7646 | 222.3 ± 8 mPa·s
303.15 K, 101 kPa, x1 = 0.79 | 237 ± 8 mPa·s
303.15 K, 101 kPa, x1 = 0.7947 | 257.2 ± 10 mPa·s
303.15 K, 101 kPa, x1 = 0.7958 | 245.8 ± 79 mPa·s
303.15 K, 101 kPa, x1 = 0.8114 | 279.6 ± 12 mPa·s
303.15 K, 101 kPa, x1 = 0.82 | 281 ± 10 mPa·s
303.15 K, 101 kPa, x1 = 0.8274 | 300.6 ± 13 mPa·s
303.15 K, 101 kPa, x1 = 0.8428 | 322.4 ± 14 mPa·s
303.15 K, 101 kPa, x1 = 0.859 | 346.7 ± 16 mPa·s
303.15 K, 101 kPa, x1 = 0.86 | 340 ± 13 mPa·s
303.15 K, 101 kPa, x1 = 0.8905 | 384 ± 130 mPa·s
303.15 K, 101 kPa, x1 = 0.9082 | 427.2 ± 21 mPa·s
303.15 K, 101 kPa, x1 = 0.91 | 409 ± 16 mPa·s
303.15 K, 101 kPa, x1 = 0.9434 | 496.2 ± 26 mPa·s
303.15 K, 101 kPa, x1 = 0.95 | 500 ± 21 mPa·s
303.15 K, 101 kPa, x1 = 0.96 | 500.7 ± 170 mPa·s
303.15 K, 101 kPa, x2 = 0.0171 | 583.3 ± 33 mPa·s
303.15 K, 101.3 kPa, x1 = 0.002 | 0.807 ± 0.021 mPa·s
303.15 K, 101.3 kPa, x1 = 0.004 | 0.817 ± 0.021 mPa·s
303.15 K, 101.3 kPa, x1 = 0.005 | 0.833 ± 0.022 mPa·s
303.15 K, 101.3 kPa, x1 = 0.007 | 0.864 ± 0.022 mPa·s
303.15 K, 101.3 kPa, x1 = 0.009 | 0.874 ± 0.023 mPa·s
303.15 K, 101.3 kPa, x1 = 0.01 | 0.894 ± 0.023 mPa·s and 0.908 ± 0.024 mPa·s and 0.923 ± 0.024 mPa·s
303.15 K, 101.3 kPa, x1 = 0.02 | 0.941 ± 0.025 mPa·s and 0.957 ± 0.025 mPa·s
308.15 K, 101.3 kPa, x1 = 0.002 | 0.731 ± 0.019 mPa·s
308.15 K, 101.3 kPa, x1 = 0.004 | 0.741 ± 0.019 mPa·s
308.15 K, 101.3 kPa, x1 = 0.005 | 0.763 ± 0.02 mPa·s
308.15 K, 101.3 kPa, x1 = 0.007 | 0.789 ± 0.021 mPa·s
308.15 K, 101.3 kPa, x1 = 0.009 | 0.792 ± 0.021 mPa·s
308.15 K, 101.3 kPa, x1 = 0.01 | 0.799 ± 0.021 mPa·s and 0.822 ± 0.021 mPa·s and 0.844 ± 0.022 mPa·s
308.15 K, 101.3 kPa, x1 = 0.02 | 0.851 ± 0.022 mPa·s and 0.861 ± 0.023 mPa·s
313.15 K, 101 kPa, x1 = 0.021 | 0.826 ± 0.017 mPa·s
313.15 K, 101 kPa, x1 = 0.047 | 1.07 ± 0.02 mPa·s
313.15 K, 101 kPa, x1 = 0.077 | 1.46 ± 0.03 mPa·s
313.15 K, 101 kPa, x1 = 0.1005 | 1.747 ± 0.53 mPa·s
313.15 K, 101 kPa, x1 = 0.12 | 2.07 ± 0.04 mPa·s
313.15 K, 101 kPa, x1 = 0.16 | 3.1 ± 0.07 mPa·s
313.15 K, 101 kPa, x1 = 0.2026 | 4.038 ± 1.2 mPa·s
